Reference: paper PMC9911399, “Two distinct binding modes provide the RNA-binding protein RbFox with extraordinary sequence specificity”
Positions count from the first letter of the chain named. The list shows a part of the results.

T1: RBFOX1 RRM (Homo sapiens, UniProt Q9NWB1 109-208)
T1 sequence: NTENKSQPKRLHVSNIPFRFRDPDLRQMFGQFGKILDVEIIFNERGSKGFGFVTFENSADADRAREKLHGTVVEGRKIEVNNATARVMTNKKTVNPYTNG

B1: GCGCGCU (DNA:RNA)
RNA: GGGAGACCGGAAUUCAGAUUGUCCGCGCGCUUUAAAUCCCGUCGUAGCCACCA
DNA 1: CAATCTGAATTCCGGTCTCCC
DNA 2: TGGTGGCTACGACGGGATT
B2: GGGUAGG (DNA:RNA)
RNA: B1 RNA with C26G, C28U, G29A, C30G, U31G
DNA 1: CAATCTGAATTCCGGTCTCCC
DNA 2: TGGTGGCTACGACGGGATT
B3: UCUUGCG (DNA:RNA)
RNA: B1 RNA with G25U, G27U, C28U, U31G
DNA 1: CAATCTGAATTCCGGTCTCCC
DNA 2: TGGTGGCTACGACGGGATT
B4: UAUAACU (DNA:RNA)
RNA: B1 RNA with G25U, C26A, G27U, C28A, G29A
DNA 1: CAATCTGAATTCCGGTCTCCC
DNA 2: TGGTGGCTACGACGGGATT
B5: GGCGGAC (DNA:RNA)
RNA: B1 RNA with C26G, G27C, C28G, C30A, U31C
DNA 1: CAATCTGAATTCCGGTCTCCC
DNA 2: TGGTGGCTACGACGGGATT
B6: CUUCGAU (DNA:RNA)
RNA: B1 RNA with G25C, C26U, G27U, C30A
DNA 1: CAATCTGAATTCCGGTCTCCC
DNA 2: TGGTGGCTACGACGGGATT
B7: UCACUGC (DNA:RNA)
RNA: B1 RNA with G25U, G27A, G29U, C30G, U31C
DNA 1: CAATCTGAATTCCGGTCTCCC
DNA 2: TGGTGGCTACGACGGGATT
B8: CGUUUGC (DNA:RNA)
RNA: GGGAGACCGGAAUUCAGAUUGUCCCGUUUGCUUAAAUCCCGUCGUAGCCACCA
DNA 1: CAATCTGAATTCCGGTCTCCC
DNA 2: TGGTGGCTACGACGGGATT
B9: CAGUCCC (DNA:RNA)
RNA: B8 RNA with G26A, U27G, U29C, G30C
DNA 1: CAATCTGAATTCCGGTCTCCC
DNA 2: TGGTGGCTACGACGGGATT
B10: AUACAAC (DNA:RNA)
RNA: B8 RNA with C25A, G26U, U27A, U28C, U29A, G30A
DNA 1: CAATCTGAATTCCGGTCTCCC
DNA 2: TGGTGGCTACGACGGGATT
B11: GGUCUGG (DNA:RNA)
RNA: B8 RNA with C25G, U28C, C31G
DNA 1: CAATCTGAATTCCGGTCTCCC
DNA 2: TGGTGGCTACGACGGGATT
B12: CCGUGCC (DNA:RNA)
RNA: B1 RNA with G25C, C28U, U31C
DNA 1: CAATCTGAATTCCGGTCTCCC
DNA 2: TGGTGGCTACGACGGGATT
B13: CGAACCU (DNA:RNA)
RNA: B8 RNA with U27A, U28A, U29C, G30C, C31U
DNA 1: CAATCTGAATTCCGGTCTCCC
DNA 2: TGGTGGCTACGACGGGATT
B14: UCAACGU (DNA:RNA)
RNA: B1 RNA with G25U, G27A, C28A, G29C, C30G
DNA 1: CAATCTGAATTCCGGTCTCCC
DNA 2: TGGTGGCTACGACGGGATT
B15: CUUUACU (DNA:RNA)
RNA: B8 RNA with G26U, U29A, G30C, C31U
DNA 1: CAATCTGAATTCCGGTCTCCC
DNA 2: TGGTGGCTACGACGGGATT
B16: GAUCUAU (DNA:RNA)
RNA: B1 RNA with C26A, G27U, G29U, C30A
DNA 1: CAATCTGAATTCCGGTCTCCC
DNA 2: TGGTGGCTACGACGGGATT
B17: UGUCUAG (DNA:RNA)
RNA: B8 RNA with C25U, U28C, G30A, C31G
DNA 1: CAATCTGAATTCCGGTCTCCC
DNA 2: TGGTGGCTACGACGGGATT
B18: UAAUGCA (DNA:RNA)
RNA: B1 RNA with G25U, C26A, G27A, C28U, U31A
DNA 1: CAATCTGAATTCCGGTCTCCC
DNA 2: TGGTGGCTACGACGGGATT
B19: UUUUCGU (DNA:RNA)
RNA: B8 RNA with C25U, G26U, U29C, C31U
DNA 1: CAATCTGAATTCCGGTCTCCC
DNA 2: TGGTGGCTACGACGGGATT
B20: AUUUCCU (DNA:RNA)
RNA: B8 RNA with C25A, G26U, U29C, G30C, C31U
DNA 1: CAATCTGAATTCCGGTCTCCC
DNA 2: TGGTGGCTACGACGGGATT

Each binder was assayed against T1, RBFOX1 RRM (assay: EMSA; HiTS-Eq, 1 nM pool, 10 min; buffer printed only for the single-RNA assays: 10 mM Tris pH 7.5, 150 mM NaCl, 3.4 mM EDTA, 0.001% NP-40, 30 C). Conditions: tags: His6 N-terminal (pET28a); label: 5' 32P.
In short: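 Purified RbFox RRM, wild type or mutant, was incubated for 10 min in 50 µL with 1 nM of a 5′-radiolabelled RNA pool carrying 7 randomized nucleotides, whose flanks were annealed to DNA oligonucleotides, over a series of increasing protein concentrations. Unbound RNA was resolved on 8% native PAGE, cut out, reverse-transcribed, barcoded by PCR and sequenced on an Illumina HiSeq 2500. Relative association constants were derived from changes in read counts for each RNA species versus the control reaction and normalised to the cognate motif.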

Binder	binding signal
B1	0.02 KA relative to UGCAUGU
B2	0.0151 KA relative to UGCAUGU
B3	0.0155 KA relative to UGCAUGU
B4	0.00214 KA relative to UGCAUGU
B5	0.016 KA relative to UGCAUGU
B6	0.0134 KA relative to UGCAUGU
B7	0.00873 KA relative to UGCAUGU
B8	0.019 KA relative to UGCAUGU
B9	0.00229 KA relative to UGCAUGU
B10	0.000475 KA relative to UGCAUGU
B11	0.0102 KA relative to UGCAUGU
B12	0.0134 KA relative to UGCAUGU
B13	0.00221 KA relative to UGCAUGU
B14	0.00283 KA relative to UGCAUGU
B15	0.00212 KA relative to UGCAUGU
B16	0.00589 KA relative to UGCAUGU
B17	0.0193 KA relative to UGCAUGU
B18	0.0156 KA relative to UGCAUGU
B19	0.0181 KA relative to UGCAUGU
B20	0.00421 KA relative to UGCAUGU
